# From the supplement of paper PMC4604168 (melanoma cell lines)
# This is one part of the list. Repeats are few or missing, and single values can be far off.
# Test system: COLO792
# Test: cell count relative to DMSO control; melanoma cells; higher = more viable cells
# Conditions: library dose: low library concentration; 72 h
# 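Note: cell number obtained by counting DAPI-stained nuclei in high-throughput microscope images with image analysis software, screen run in 1,536-well plates.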
row,SMILES,cell count [%]
1,"C[C@@H](Oc1cc(-c2cnn(C3CCNCC3)c2)cnc1N)c1c(Cl)ccc(F)c1Cl [Crizotinib] + CCCCCCCCCCCC1=C(O)C(=O)C=C(O)C1=O [Embelin] (first compound 0.2 µM, partner dose 1.2 µM)",102
2,"CN1CCN(c2ccc3nc(-c4c(N)c5c(F)cccc5[nH]c4=O)[nH]c3c2)CC1 [Dovitinib] + CCCCCCCCCCCC1=C(O)C(=O)C=C(O)C1=O [Embelin] (first compound 0.1 µM, partner dose 1.2 µM)",103
3,"CN1CCN(c2ccc3nc(-c4c(N)c5c(F)cccc5[nH]c4=O)[nH]c3c2)CC1 [Dovitinib] + CCN(CC)CCCCNc1ncc2cc(-c3cc(OC)cc(OC)c3)c(NC(=O)NC(C)(C)C)nc2n1 [PD173074] (first compound 0.1 µM, partner dose 0.1 µM)",97.1
4,"CS(=O)(=O)CCNCc1ccc(-c2ccc3ncnc(Nc4ccc(OCc5cccc(F)c5)c(Cl)c4)c3c2)o1 [lapatinib] + COC(=O)c1sccc1S(=O)(=O)Nc1ccc(Nc2ccccc2)cc1OC [GSK0660] (first compound 0.8 µM, partner dose 1 µM)",78.4
5,"C=CCNC1=C2C[C@@H](C)C[C@H](OC)[C@H](O)[C@@H](C)/C=C(\C)[C@H](OC(N)=O)[C@@H](OC)/C=C\C=C(/C)C(=O)NC(=CC1=O)C2=O [Tanespimycin] + COC(=O)c1sccc1S(=O)(=O)Nc1ccc(Nc2ccccc2)cc1OC [GSK0660] (first compound 0.002 µM, partner dose 1 µM)",114
6,"C[C@@H](Oc1cc(-c2cnn(C3CCNCC3)c2)cnc1N)c1c(Cl)ccc(F)c1Cl [Crizotinib] + O=S(=O)(c1ccccc1)N(CC(F)(F)F)c1ccc(C(O)(C(F)(F)F)C(F)(F)F)cc1 [T0901317] (first compound 0.2 µM, partner dose 1.4 µM)",98.5
7,"C=CCNC1=C2C[C@@H](C)C[C@H](OC)[C@H](O)[C@@H](C)/C=C(\C)[C@H](OC(N)=O)[C@@H](OC)/C=C\C=C(/C)C(=O)NC(=CC1=O)C2=O [Tanespimycin] + CCCCCCCCCCCC1=C(O)C(=O)C=C(O)C1=O [Embelin] (first compound 0.002 µM, partner dose 1.2 µM)",101
8,"CNC(=O)c1cc(Oc2ccc(NC(=O)Nc3ccc(Cl)c(C(F)(F)F)c3)cc2)ccn1 [sorafenib] + COC(=O)c1sccc1S(=O)(=O)Nc1ccc(Nc2ccccc2)cc1OC [GSK0660] (first compound 0.4 µM, partner dose 1 µM)",109
9,"CNC(=O)c1cc(Oc2ccc(NC(=O)Nc3ccc(Cl)c(C(F)(F)F)c3)cc2)ccn1 [sorafenib] + CCN(CC)CCCCNc1ncc2cc(-c3cc(OC)cc(OC)c3)c(NC(=O)NC(C)(C)C)nc2n1 [PD173074] (first compound 0.4 µM, partner dose 0.1 µM)",122
10,"CN1CCN(c2ccc3nc(-c4c(N)c5c(F)cccc5[nH]c4=O)[nH]c3c2)CC1 [Dovitinib] + O=c1cc(-c2cccc3c2Sc2ccccc2S3)oc(N2CCOCC2)c1 [KU55933] (first compound 0.1 µM, partner dose 1 µM)",112
11,"C=CCNC1=C2C[C@@H](C)C[C@H](OC)[C@H](O)[C@@H](C)/C=C(\C)[C@H](OC(N)=O)[C@@H](OC)/C=C\C=C(/C)C(=O)NC(=CC1=O)C2=O [Tanespimycin] + O=C1NC(=O)/C(=C/c2ccc(-c3ccc(F)cc3O)o2)S1 [AS252424] (first compound 0.002 µM, partner dose 1 µM)",102
12,"C=CCNC1=C2C[C@@H](C)C[C@H](OC)[C@H](O)[C@@H](C)/C=C(\C)[C@H](OC(N)=O)[C@@H](OC)/C=C\C=C(/C)C(=O)NC(=CC1=O)C2=O [Tanespimycin] + O=C(O)C(=O)Nc1sc2c(c1C(=O)O)CCNC2 [TCS401] (first compound 0.002 µM, partner dose 1.66667 µM)",91.6
13,"C=CCNC1=C2C[C@@H](C)C[C@H](OC)[C@H](O)[C@@H](C)/C=C(\C)[C@H](OC(N)=O)[C@@H](OC)/C=C\C=C(/C)C(=O)NC(=CC1=O)C2=O [Tanespimycin] + COc1ccc2c(c1)CCC1C2CCC2(C)C(NCCCCCCN3C(=O)C=CC3=O)CCC12 [U73122] (first compound 0.002 µM, partner dose 0.4 µM)",94
